Article PMC4168999
No constants are given. Whether binding was seen depends on the method and setting. Binding seen in cells or lysates may run through a third protein. Some entries that bind do so weakly or less than the wild type.

Sequences of proteins named here, by UniProt entry; tags and fusion partners are left off.
UniProt O75800: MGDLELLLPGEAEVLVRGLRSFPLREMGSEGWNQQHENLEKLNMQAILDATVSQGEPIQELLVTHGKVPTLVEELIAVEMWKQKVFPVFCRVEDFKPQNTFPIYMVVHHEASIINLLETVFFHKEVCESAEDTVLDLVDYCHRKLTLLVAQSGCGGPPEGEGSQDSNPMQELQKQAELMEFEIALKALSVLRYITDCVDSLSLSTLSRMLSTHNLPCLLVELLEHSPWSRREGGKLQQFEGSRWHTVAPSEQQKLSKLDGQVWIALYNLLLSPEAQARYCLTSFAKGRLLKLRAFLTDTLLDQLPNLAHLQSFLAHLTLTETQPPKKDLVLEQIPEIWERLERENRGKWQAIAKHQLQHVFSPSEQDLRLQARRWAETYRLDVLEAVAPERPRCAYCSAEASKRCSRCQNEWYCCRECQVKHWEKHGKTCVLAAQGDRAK
UniProt Q8TE73: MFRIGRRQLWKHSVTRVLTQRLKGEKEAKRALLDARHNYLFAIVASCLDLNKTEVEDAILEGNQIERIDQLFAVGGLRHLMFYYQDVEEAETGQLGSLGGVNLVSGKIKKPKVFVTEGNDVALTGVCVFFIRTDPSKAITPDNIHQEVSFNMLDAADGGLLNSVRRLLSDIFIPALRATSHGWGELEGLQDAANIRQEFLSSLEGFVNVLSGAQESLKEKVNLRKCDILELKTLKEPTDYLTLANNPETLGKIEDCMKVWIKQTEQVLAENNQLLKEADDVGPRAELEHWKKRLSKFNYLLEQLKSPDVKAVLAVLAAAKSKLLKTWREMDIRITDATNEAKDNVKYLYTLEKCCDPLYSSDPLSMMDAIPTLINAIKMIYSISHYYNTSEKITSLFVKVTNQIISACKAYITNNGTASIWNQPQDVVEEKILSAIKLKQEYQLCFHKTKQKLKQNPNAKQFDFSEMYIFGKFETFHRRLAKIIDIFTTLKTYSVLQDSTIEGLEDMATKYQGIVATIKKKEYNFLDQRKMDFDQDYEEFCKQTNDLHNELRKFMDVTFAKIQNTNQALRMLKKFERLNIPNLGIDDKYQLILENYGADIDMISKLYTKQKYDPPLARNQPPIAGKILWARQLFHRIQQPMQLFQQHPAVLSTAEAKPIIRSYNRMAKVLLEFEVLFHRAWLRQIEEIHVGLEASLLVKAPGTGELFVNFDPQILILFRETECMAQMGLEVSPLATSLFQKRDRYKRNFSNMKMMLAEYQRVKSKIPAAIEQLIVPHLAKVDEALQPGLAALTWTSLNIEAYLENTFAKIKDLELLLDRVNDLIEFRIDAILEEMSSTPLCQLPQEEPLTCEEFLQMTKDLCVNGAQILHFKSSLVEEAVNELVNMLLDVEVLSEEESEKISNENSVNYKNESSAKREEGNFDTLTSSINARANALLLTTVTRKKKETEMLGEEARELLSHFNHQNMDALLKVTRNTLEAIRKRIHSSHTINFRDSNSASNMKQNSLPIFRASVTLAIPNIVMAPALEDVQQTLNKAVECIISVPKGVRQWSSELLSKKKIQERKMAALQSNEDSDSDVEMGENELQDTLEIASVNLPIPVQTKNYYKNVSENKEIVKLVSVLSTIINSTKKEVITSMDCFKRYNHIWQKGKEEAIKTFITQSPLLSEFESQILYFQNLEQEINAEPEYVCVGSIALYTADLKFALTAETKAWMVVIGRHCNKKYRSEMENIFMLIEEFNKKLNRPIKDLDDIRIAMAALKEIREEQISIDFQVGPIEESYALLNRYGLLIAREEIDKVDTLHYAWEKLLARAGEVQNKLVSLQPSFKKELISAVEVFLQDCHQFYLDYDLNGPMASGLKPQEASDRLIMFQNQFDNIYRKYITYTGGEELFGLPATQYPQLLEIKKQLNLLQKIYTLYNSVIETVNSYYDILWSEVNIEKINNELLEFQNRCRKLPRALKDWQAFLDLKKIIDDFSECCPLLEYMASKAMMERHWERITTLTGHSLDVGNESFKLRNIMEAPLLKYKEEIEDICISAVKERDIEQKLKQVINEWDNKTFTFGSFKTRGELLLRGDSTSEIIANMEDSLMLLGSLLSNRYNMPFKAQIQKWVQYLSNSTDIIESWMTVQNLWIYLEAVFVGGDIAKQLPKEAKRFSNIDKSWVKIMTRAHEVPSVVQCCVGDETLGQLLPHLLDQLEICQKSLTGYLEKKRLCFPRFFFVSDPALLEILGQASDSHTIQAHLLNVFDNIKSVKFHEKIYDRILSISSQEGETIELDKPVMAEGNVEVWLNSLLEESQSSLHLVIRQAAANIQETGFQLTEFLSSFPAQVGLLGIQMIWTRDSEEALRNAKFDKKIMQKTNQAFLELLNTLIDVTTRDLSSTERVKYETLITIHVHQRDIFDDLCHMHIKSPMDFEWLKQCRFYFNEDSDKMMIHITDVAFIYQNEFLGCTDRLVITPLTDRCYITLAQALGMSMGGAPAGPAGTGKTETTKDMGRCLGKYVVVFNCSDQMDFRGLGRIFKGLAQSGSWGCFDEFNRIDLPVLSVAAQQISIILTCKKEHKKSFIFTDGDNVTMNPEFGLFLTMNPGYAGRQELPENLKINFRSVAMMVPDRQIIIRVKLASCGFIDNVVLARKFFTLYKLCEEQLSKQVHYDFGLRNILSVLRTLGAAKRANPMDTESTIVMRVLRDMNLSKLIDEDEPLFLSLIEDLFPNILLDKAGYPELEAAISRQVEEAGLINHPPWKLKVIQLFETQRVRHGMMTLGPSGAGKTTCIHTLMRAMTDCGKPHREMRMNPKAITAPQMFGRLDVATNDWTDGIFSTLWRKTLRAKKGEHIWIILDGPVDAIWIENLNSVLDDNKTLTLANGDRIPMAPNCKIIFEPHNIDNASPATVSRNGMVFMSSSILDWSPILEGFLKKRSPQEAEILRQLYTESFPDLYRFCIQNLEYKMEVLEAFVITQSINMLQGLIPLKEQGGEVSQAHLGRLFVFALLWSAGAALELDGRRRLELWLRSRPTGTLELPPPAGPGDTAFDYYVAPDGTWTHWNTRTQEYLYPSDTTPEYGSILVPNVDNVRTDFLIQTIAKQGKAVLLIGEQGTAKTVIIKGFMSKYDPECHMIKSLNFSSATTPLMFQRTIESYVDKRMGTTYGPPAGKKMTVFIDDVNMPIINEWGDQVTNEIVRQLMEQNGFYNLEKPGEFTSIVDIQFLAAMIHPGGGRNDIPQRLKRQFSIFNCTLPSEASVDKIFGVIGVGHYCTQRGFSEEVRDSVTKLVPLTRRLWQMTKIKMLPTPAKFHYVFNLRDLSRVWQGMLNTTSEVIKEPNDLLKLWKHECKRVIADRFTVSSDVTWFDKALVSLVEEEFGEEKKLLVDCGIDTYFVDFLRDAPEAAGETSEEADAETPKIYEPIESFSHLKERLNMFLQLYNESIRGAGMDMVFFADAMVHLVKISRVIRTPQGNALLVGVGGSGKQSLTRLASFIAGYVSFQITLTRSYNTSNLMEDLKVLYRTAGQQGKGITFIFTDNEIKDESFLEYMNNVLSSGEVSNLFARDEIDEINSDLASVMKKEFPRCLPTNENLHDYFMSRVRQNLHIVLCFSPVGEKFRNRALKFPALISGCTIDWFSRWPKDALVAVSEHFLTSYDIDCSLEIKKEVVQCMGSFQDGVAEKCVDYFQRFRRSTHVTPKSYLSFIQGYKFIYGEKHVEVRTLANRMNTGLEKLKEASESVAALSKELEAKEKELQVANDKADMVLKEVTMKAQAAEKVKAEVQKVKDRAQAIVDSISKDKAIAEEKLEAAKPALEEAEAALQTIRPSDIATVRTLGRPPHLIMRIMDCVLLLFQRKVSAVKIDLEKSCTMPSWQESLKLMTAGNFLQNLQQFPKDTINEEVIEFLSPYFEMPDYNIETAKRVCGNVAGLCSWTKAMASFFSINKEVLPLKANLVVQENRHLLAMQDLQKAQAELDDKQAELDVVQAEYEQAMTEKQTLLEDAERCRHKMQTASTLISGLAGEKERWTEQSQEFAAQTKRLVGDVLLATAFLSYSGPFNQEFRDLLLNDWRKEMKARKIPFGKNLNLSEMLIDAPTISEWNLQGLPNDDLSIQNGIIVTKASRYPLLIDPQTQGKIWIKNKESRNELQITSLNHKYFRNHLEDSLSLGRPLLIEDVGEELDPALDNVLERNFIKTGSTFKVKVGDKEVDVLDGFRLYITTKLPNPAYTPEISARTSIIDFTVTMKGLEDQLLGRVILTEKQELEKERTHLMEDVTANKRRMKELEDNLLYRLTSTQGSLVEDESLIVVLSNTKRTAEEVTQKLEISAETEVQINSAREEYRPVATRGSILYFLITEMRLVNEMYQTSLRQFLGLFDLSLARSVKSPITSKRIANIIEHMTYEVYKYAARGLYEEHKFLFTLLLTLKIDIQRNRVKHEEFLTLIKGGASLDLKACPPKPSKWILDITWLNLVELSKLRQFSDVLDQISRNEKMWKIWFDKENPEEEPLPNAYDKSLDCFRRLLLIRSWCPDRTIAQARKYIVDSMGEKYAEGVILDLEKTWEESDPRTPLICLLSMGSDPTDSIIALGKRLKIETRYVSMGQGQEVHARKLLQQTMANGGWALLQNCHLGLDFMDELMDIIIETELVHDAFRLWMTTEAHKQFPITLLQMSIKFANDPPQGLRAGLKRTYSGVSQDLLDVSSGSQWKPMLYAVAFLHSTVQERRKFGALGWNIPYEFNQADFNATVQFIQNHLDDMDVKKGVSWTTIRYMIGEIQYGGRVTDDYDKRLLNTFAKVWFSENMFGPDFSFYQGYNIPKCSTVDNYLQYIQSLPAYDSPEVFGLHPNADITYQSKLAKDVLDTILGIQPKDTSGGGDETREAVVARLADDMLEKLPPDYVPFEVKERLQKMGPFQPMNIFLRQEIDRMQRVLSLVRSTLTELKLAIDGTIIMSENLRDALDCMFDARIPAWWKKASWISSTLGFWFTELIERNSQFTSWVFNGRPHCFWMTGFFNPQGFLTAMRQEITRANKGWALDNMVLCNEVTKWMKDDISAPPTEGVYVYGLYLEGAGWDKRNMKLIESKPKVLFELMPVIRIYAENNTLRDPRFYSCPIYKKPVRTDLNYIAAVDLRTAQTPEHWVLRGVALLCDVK

T1: HEATR2 (human (endogenous in normal human bronchial epithelial cells)) (UniProt Q86Y56)
T1 sequence: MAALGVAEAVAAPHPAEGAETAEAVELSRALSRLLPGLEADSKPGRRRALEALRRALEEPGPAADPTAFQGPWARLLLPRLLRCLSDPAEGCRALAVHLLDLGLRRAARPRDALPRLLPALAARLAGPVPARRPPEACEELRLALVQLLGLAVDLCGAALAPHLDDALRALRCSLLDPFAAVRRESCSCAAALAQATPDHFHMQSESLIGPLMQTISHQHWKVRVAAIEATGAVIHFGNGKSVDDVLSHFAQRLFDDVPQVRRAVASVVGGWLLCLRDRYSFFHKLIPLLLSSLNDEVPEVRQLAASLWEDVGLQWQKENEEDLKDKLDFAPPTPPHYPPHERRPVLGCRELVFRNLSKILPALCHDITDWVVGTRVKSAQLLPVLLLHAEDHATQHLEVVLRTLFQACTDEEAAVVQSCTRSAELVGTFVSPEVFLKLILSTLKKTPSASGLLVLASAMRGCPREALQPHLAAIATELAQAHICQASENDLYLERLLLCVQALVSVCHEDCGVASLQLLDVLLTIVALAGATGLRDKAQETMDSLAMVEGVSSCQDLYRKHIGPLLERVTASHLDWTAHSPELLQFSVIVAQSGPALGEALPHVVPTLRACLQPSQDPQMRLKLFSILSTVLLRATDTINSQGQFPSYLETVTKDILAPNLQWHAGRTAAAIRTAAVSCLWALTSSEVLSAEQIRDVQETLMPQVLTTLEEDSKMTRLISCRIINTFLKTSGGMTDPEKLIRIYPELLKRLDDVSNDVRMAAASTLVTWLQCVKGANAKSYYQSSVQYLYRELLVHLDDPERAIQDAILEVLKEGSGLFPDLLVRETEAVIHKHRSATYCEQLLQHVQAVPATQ

B1: DNAAF3 (protein, UniProt Q8N9W5 1-541)
chain: MTTPAGSGSGFGSVSWWGLSPALDLQAESPPVDPDSQADTVHSNPELDVLLLGSVDGRHLLRTLSRAKFWPRRRFNFFVLENNLEAVARHMLIFSLALEEPEKMGLQERSETFLEVWGNALLRPPVAAFVRAQADLLAHLVPEPDRLEEQLPWLSLRALKFRERDALEAVFRFWAGGEKGPQAFPMSRLWDSRLRHYLGSRYDARRGVSDWDLRMKLHDRGAQVIHPQEFRRWRDTGVAFELRDSSAYHVPNRTLASGRLLSYRGERVAARGYWGDIATGPFVAFGIEADDESLLRTSNGQPVKTAGEITQHNVTELLRDVAAWGRARATGGDLEEQQHAEGSPEPGTPAAPTPESFTVHFLPLNSAQTLHHKSCYNGRFQLLYVACGMVHLLIPELGACVAPGGNLIVELARYLVDVRQEQLQGFNTRVRELAQAAGFAPQTGARPSETFARFCKSQESALGNTVPAVEPGTPPLDILAQPLEASNPALEGLTQPLQGGTPHCEPCQLPSESPGSLSEVLAQPQGALAPPNCESDSKTGV
B2: DNAAF2/KTU (protein, UniProt Q9NVR5 1-837)
chain: MAKAAASSSLEDLDLSGEEVQRLTSAFQDPEFRRMFSQYAEELTDPENRRRYEAEITALERERGVEVRFVHPEPGHVLRTSLDGARRCFVNVCSNALVGAPSSRPGSGGDRGAAPGSHWSLPYSLAPGREYAGRSSSRYMVYDVVFHPDALALARRHEGFRQMLDATALEAVEKQFGVKLDRRNAKTLKAKYKGTPEAAVLRTPLPGVIPARPDGEPKGPLPDFPYPYQYPAAPGPRAPSPPEAALQPAPTEPRYSVVQRHHVDLQDYRCSRDSAPSPVPHELVITIELPLLRSAEQAALEVTRKLLCLDSRKPDYRLRLSLPYPVDDGRGKAQFNKARRQLVVTLPVVLPAARREPAVAVAAAAPEESADRSGTDGQACASAREGEAGPARSRAEDGGHDTCVAGAAGSGVTTLGDPEVAPPPAAAGEERVPKPGEQDLSRHAGSPPGSVEEPSPGGENSPGGGGSPCLSSRSLAWGSSAGRESARGDSSVETREESEGTGGQRSACAMGGPGTKSGEPLCPPLLCNQDKETLTLLIQVPRIQPQSLQGDLNPLWYKLRFSAQDLVYSFFLQFAPENKLSTTEPVISISSNNAVIELAKSPESHGHWREWYYGVNNDSLEERLFVNEENVNEFLEEVLSSPFKQSMSLTPPLIEVLQVTDNKIQINAKLQECSNSDQLQGKEERVNEESHLTEKEYIEHCNTPTTDSDSSIAVKALQIDSFGLVTCFQQESLDVSQMILGKSQQPESKMQSEFIKEKSATCSNEEKDNLNESVITEEKETDGDHLSSLLNKTTVHNIPGFDSIKETNMQDGSVQVIKDHVTNCAFSFQNSLLYDLD
B3: DNALI1 (protein, UniProt O14645 1-258)
chain: MIPPADSLLKYDTPVLVSRNTEKRSPKARLLKVSPQQPGPSGSAPQPPKTKLPSTPCVPDPTKQAEEILNAILPPREWVEDTQLWIQQVSSTPSTRMDVVHLQEQLDLKLQQRQARETGICPVRRELYSQCFDELIREVTINCAERGLLLLRVRDEIRMTIAAYQTLYESSVAFGMRKALQAEQGKSDMERKIAELETEKRDLERQVNEQKAKCEATEKRESERRQVEEKKHNEEIQFLKRTNQQLKAQLEGIIAPKK
B4: DNAI2 (protein, UniProt Q9GZS0 1-605)
chain: MEIVYVYVKKRSEFGKQCNFSDRQAELNIDIMPNPELAEQFVERNPVDTGIQCSISMSEHEANSERFEMETRGVNHVEGGWPKDVNPLELEQTIRFRKKVEKDENYVNAIMQLGSIMEHCIKQNNAIDIYEEYFNDEEAMEVMEEDPSAKTINVFRDPQEIKRAATHLSWHPDGNRKLAVAYSCLDFQRAPVGMSSDSYIWDLENPNKPELALKPSSPLVTLEFNPKDSHVLLGGCYNGQIACWDTRKGSLVAELSTIESSHRDPVYGTIWLQSKTGTECFSASTDGQVMWWDIRKMSEPTEVVILDITKKEQLENALGAISLEFESTLPTKFMVGTEQGIVISCNRKAKTSAEKIVCTFPGHHGPIYALQRNPFYPKNFLTVGDWTARIWSEDSRESSIMWTKYHMAYLTDAAWSPVRPTVFFTTRMDGTLDIWDFMFEQCDPTLSLKVCDEALFCLRVQDNGCLIACGSQLGTTTLLEVSPGLSTLQRNEKNVASSMFERETRREKILEARHREMRLKEKGKAEGRDEEQTDEELAVDLEALVSKAEEEFFDIIFAELKKKEADAIKLTPVPQQPSPEEDQVVEEGEEAAGEEGDEEVEEDLA

What follows are molecules tested against T1, HEATR2 (human (endogenous in normal human bronchial epithelial cells)) (assay: co-IP; endogenous HEATR2 precipitated with anti-HEATR2 (Proteintech) from whole cell lysates of terminally differentiated normal human bronchial epithelial cells (40 days post-ALI); control rabbit IgG (GFP); lysis buffer 50 mM Tris-HCl pH 7.5, 100 mM NaCl, 10% glycerol, 0.5 mM EDTA, 0.5% IGEPAL, 0.15% Triton-X 100; overnight at 4°C; Dynabeads G; immunoblot).

| binding | Molecule |
| --- | --- |
| no binding | ZMYND10 (from UniProt O75800 1-440) |
| no binding | DNAH5 (from UniProt Q8TE73 1-4624) |
| no binding | B1 |
| no binding | B2 |
| no binding | B3 |
| binds | B4 |
